Certain results were filed several times, with different values. This is not the full list of results. The source may hold further records. The values listed for one entry are repeats across runs, samples, wells, individuals or studies. Brackets with × count equal records among those shown.
System: 422866-222-R5-J1-PDC spheroid viability
Test: Anticancer human tumor 422866-222-R5-J1-PDC patient-derived pancreatic adenocarcinoma cell line growth inhibition [CLK]
Conditions: stronger effect = lower value, spheroids with HUVEC and MSC
Excerpt: A high-throughput screen of multi-cell type tumor spheroids was designed to identify active combinations of […] and targeted small molecules. Complex spheroids include a stromal component modeled by human endothelial cells (HUVEC) and fibroblasts modeled by human mesenchymal stem cells (MSCs). The concentration ranges selected for each drug and investigational agent were based upon clinically achievable concentrations if the clinical Cmax of the agent was known.
Compounds. The drugs and investigational agents: cirtuvivint (SM08502; NSC835563), CC-671 (NSC850746), vemurafenib (NSC761431), tapotoclax (NSC804041), sotorasib (NSC818433), adagrasib (NSC831453), MRTX-1133 (NSC836407), BAY2416964 (NSC825713), copanlisib (NSC816437), inavolisib (NSC800729), abemaciclib (NSC768073), osimertinib (NSC779217), entinostat (NSC756642), eltanexor (KPT-8602, NSC794443), venetoclax (NSC766270), ceralasertib (NSC777638), bortezomib (NSC756655), olaparib (NSC753686), talazoparib (NSC767125), alisertib (NSC759677), peposertib (NSC802822), gemcitabine (NSC613327), 5-fluorouracil (NSC19893), SN-38 (NSC673596), oxaliplatin (NSC266046), paclitaxel (NSC125973), and doxorubicin (NSC123127), were obtained from the National Cancer Institute (NCI) Developmental Therapeutics Program Chemical Repository. The FDA-approved anticancer drug set is available from the Developmental Therapeutics Program at https://dtp.cancer.gov/organization/dscb/obtaining/available plates.htm. […] The stock solutions were prepared in dimethyl sulfoxide (DMSO, Sigma-Aldrich, St. Louis, MO, cat. D2650), except for the platinum complexes which were prepared in saline (Quality Biological, Gaithersburg, MD, cat. 114-055-101), at 800-fold the tested concentration and stored at -70 degrees C prior to their use. All drugs and investigational agents were tested over a range starting from a high concentration at or near the clinical Cmax and decreasing in half-log increments. If the clinical Cmax for an agent had not been determined, the highest concentration tested was 10 microM.
Cell Culture. All cells were maintained in an incubator at 37 degrees C and 5% CO2 with 95% humidity. The PDC lines were cultured according to standard operating procedures established by the NCI PDMR. Briefly, all PDCs were thawed and cultured in Matrigel-coated flasks prepared with a working solution of 1X Ham's F-12 nutrient mix, without supplementation (Invitrogen, Waltham, MA, cat. 11765054), 100 U/mL penicillin-streptomycin (Invitrogen, cat. 15140122), and 2.5% Matrigel (Corning Inc., Corning, NY, cat. 354248) for the first three passages. […]
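Also: spheroids exposed to agents for seven days before readout.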

CNC(=O)c1ccc(Nc2nc(OC3CCCC3)c3c(-c4ccc5nc(C)oc5c4)c[nH]c3n2)c(OC)c1
viability, T/C (compound alone 10 µM): 65.7, 78.5, 71.1, 71.3, 73.7, 63.7, 67.9, 65, 68.1, 68.2, 62.2, 87.5%

CN1CCN(c2cc(C(=O)Nc3cc4cc(-c5cnn(C)c5)ccc4cn3)ccn2)CC1
viability, T/C (compound alone 0.0316 µM): 100, 106 (2×), 95.9, 98.7, 105, 86.1, 95.3, 90.3, 110, 114, 107% | viability, T/C (compound alone 0.1 µM): 103 (2×), 105 (2×), 112, 92.9, 90.9, 102, 111, 117, 116, 101% | viability, T/C (compound alone 0.316 µM): 82.9, 91.2, 80.5, 88.2, 92.4, 89.2, 90, 89, 93.9, 105 (2×), 109%

Source: PubChem BioAssay AID2060603 (Molecular Pharmacology Branch, DTP, NCI, 2025)
